For 167 variants, self-cleavage results are on record in the RNAGym collection of RNA variant scans (doi:10.7554/elife.90254).

Sequences and labels used below:
B1: LINE1-mini (parent)
chain: GGCAGAGCUCAACACAGCGUGGCAAAGUGGCUGUGGCUAGACUGCC

The source gives no read counts; variants with many changes may rest on few reads.

In the series the parent is B1. The series can be described thus: self-cleavage, relative activity (ratio to wild type); higher = more cleavage; in vitro, sequencing; the parent is a self-cleaving ribozyme.
On to C18G U20G G27C G40C A41C, for which the self-cleavage is 0.
Next, G19A C23A G30C A41U: 0.74; G17U G21A C23G U28C C45G: 0; C18A G36U C37A C46U: 0.13.
Turning to C18G U34C G40C C46G, the self-cleavage was 0.04.
As to G19A G21A U32A C46A, the self-cleavage was 0.59.
The figure for G17U G19A A26U U32A is 0.07.
The figure for C18U C31A U38A G40C C45U is 0.
Regarding C18U G27A G33A, the self-cleavage came to 0.01.
With G17U G19C C37G C46A, the self-cleavage is 0.02.
Regarding C18U G21A A24G, the self-cleavage came to 0.1.
The figure for C18U G35U G40C is 0.02; for G17U C37U C46A it is 0.2; for G19A C23U G27U G44C it is 0.22.
As to C18A G22C C37A, the self-cleavage came to 0.02.
Regarding C18A G21U G22U G35U, the self-cleavage stood at 0.01.
Turning to C18G A24C G29C, the self-cleavage worked out at 0.08.
The figure for C18A C37A U43C is 0; for G19A U28A C42G C45G it is 0.01; for C18A U20A G35A it is 0.02.
Next, G17U G22C C42U: 0.23.
Next, C18U G19C A25U C42G G44C C45A: 0.
Take C18U G27U G40A: the self-cleavage was 0.04.
Turning to G17U G19C G21C U32A G33C U38A, the self-cleavage was 0.02.
Next, C18U U34C G35A U38C: 0.03.
Next, C18G G19C U34A: 0.1; C18G C37A C46G: 0.06; C18U A26C G36C C37A A41C: 0.01.
Next, G17U G19U U32A: 0.04; G19A G27A C37U A39C: 0.04; C18A G22C U28G U32C C46G: 0.06.
C18A G21U A26C: the self-cleavage was found to be 0.29.
On to G19A G27A U38A, for which the self-cleavage turned out to be 0.12.
As to G19A U20G G22U U28A C37G, the self-cleavage was 0.01.
With C18G C23U G27U G29A G30A, the self-cleavage was 1.43.
As for C18U U32A C37U C42U, the self-cleavage worked out at 0.03.
The figure for G17U U28A G36C is 0.06; for G19A A26G G36U it is 0.02.
For G17U G30A U32A, the self-cleavage is 0.14.
Next, G17U G19C U28G U43A C45G: 0.02.
Take G19A C23U G35C A39G: the self-cleavage came out at 0.06.
The figure for G17U U20A C23U G40C is 0.02; for G17U G21A G30U it is 0.01.
As for C18U G19C C37G C45U, the self-cleavage came out at 0.02.
Next, C18U U20C C23A: 0.74; C18G G22U C23A: 1.42; G17U G19A G27C G35U U38C: 0.07.
For the variant C18A G36C U43G, the self-cleavage was 0.01.
Take C18A U20A A26C A41C: the self-cleavage was found to be 0.07.
Regarding G19A A25U G44U, the self-cleavage was found to be 0.32.
Next, C18G G33C G36U C45G: 0; C18G C37A A39C: 0.25; G17U C37A C45G: 0.03.
Take C18U G22A G30U C31U G44U: the self-cleavage came out at 0.01.
As for C18A G36C C37A, the self-cleavage was 0.03.
The figure for C18U G22A G29C is 0.89; for C18A G36U U38A G40C C45G it is 0.01.
As for C18G A25C U34A C37A, the self-cleavage was 0.02.
C18U U34C U43A: the self-cleavage was determined as 0.03.
G17U U20A C42A: the self-cleavage is 0.26.
Next, C18A G21U U38G C46U: 0.04; C18A G19A C45A: 0.33; G19A G21A G22U C37U A41C: 0.01.
The figure for G19C C23U G36A is 0.02; for C18A G27A U32C it is 0.15.
The figure for C18A G21A A24U G30A U43C is 2.9; for C18U G21C U32C it is 0.32.
Consider G19A G33U C42U, for which the self-cleavage worked out at 0.08.
Next, G19A U34A G36C: 0.04; G19A G33A G36U: 0.16; G19A U34C C37G: 0.08.
Next, G19A U28C C46A: 0.39.
The figure for G19A C37G C42U is 0.03.
For the variant G19A G29U G30U U32G, the self-cleavage was 1.21.
The figure for G17U G22U A24U U32G is 0.06; for G19A G21U A25U U43A it is 0.02.
Turning to G19C G21A C23U, the self-cleavage amounted to 0.81.
Next, C18U A24C G33A A41U G44A: 0.04.
For the variant C18A G27A C45U, the self-cleavage is 0.43.
Next, C18A C31U U34G: 0; G19C G21U C46U: 0.26.
As for G19A C31A A39C, the self-cleavage is 0.14.
Next, G19C C23A A25G G30U A41U: 0.13; C18A C31U G33A: 0.04.
Next, C18U G22U G33U: 0.04; C18U G35A C45A: 0.07; G19A A25G A26G: 0.16.
Next, G19A G21C G29C U43A: 0.02.
G17U G36A C42G C45A: the self-cleavage was determined as 0.
C18U A24G U28C C42A: the self-cleavage stood at 0.1.
The figure for C18A G22C C23A is 1.22; for C18A G27C G40C it is 0.19.
The figure for G17U G19A G30U C37U is 0.14; for C18U C23A C31A G36A G44U it is 0.
Next, G17U G19U U38C: 0.07.
As to G17U G40A U43C, the self-cleavage is 0.03.
Turning to G17U G30C G40U, the self-cleavage came out at 0.18.
Turning to C18U U38A A39C, the self-cleavage worked out at 1.35.
The figure for C18A A25C G36C is 0.02.
Turning to C18U G21U A25G G44A C45U, the self-cleavage was determined as 0.03.
Next, G17U G21U C31U G44A: 0.04; G17U G35C C45G: 0.04; G19A U32A U34G C45U: 0.08.
Consider G19A C23G G30U U38C A39G, for which the self-cleavage was determined as 0.05.
The figure for G19A C23U G40A is 0.18; for G19C A26U G29U it is 0.81; for G19A G36U C42A it is 0.07.
Next, C18A C23U C31A G44C: 0.05; C18G G27A C37U: 0.01; G19A A26G A41U: 1.11.
For the variant C18U G21A U32G G36U, the self-cleavage was determined as 0.06.
In the case of G19A A26U A41C, the self-cleavage was 0.05.
The figure for G17U G21A C23U is 0.28.
The figure for G17U G27U C31A is 0.88.
Turning to C18G U43C C46U, the self-cleavage was determined as 0.02.
Regarding C18G G33C C45U, the self-cleavage stood at 0.04.
For C18A G36A C45A, the self-cleavage came to 0.01.
As to C18U G29U G36U, the self-cleavage was 0.36.
For C18U C37U A39U, the self-cleavage worked out at 0.03.
For the variant C18G G33U C37A A41C, the self-cleavage worked out at 0.04.
The figure for C18A G29C U32C G44U is 0; for G17U G21A G22U it is 0.84; for C18A A26C G30U C31G it is 0.01.
The figure for G17U G19A C31G U32C U38A is 0.12; for C18A A26G U28G it is 0.46; for C18A G22U C23A A26U it is 0.97.
Next, G17U G19U U20G G27A G33C: 0.02; G19A G21A C45U: 1.32; C18U C31G G36U C46G: 0.01.
For G19C C42U U43A, the self-cleavage is 0.13.
Next, C18A U20G G27U G44U C46A: 0.34; C18A G19A G35C: 0.15; G19A A24U A25U C31A C42U: 0.09.
The figure for C18U G33U C45U is 0.02; for C18U G19A U43A it is 0.03.
For G19A G27U U32G G36U, the self-cleavage was determined as 0.06.
Regarding C18A A24G U38G G44A, the self-cleavage was 0.
The figure for C18A U32G C37G is 0.04.
Next, C18A C37G U43G: 0.
The figure for C18G A26U G40U is 0.06.
On to G19A U20C G29A C45A, for which the self-cleavage stood at 0.08.
Take C18A C23U C42U C45A: the self-cleavage stood at 0.01.
Turning to G17U U20G A24C U43G, the self-cleavage was found to be 0.04.
For the variant G17U U34G A39U A41G, the self-cleavage worked out at 0.01.
The figure for G19C C23G G30U C31A is 0.1; for G19A U38C G40C C46A it is 0.02.
In the case of G19C A24U A26C, the self-cleavage turned out to be 1.54.
Next, C18U U20G G30C G40U: 0.02; C18U C23A C31U: 0.03.
The figure for G17U G19A A26U G35C is 0.09.
The figure for G17U C23G U28A is 0.11.
Turning to G19A U20A C31A C37G A39C, the self-cleavage was determined as 0.01.
Next, C18U C23G U28A: 1.4; C18A C23U G36U: 0.04.
The figure for G19A A26C C37A C42A G44U is 0.06; for C18G C23A G36U A39G G40A it is 0.03; for C18G G35C C45G it is 0.06.
As to C18U G30A G36U, the self-cleavage is 0.07.
On to C18A A24G G30C, for which the self-cleavage was 0.36.
Next, C18U C42A C46U: 0.09; G17U G19C G29C: 0.28.
C18A U28C G30U: the self-cleavage stood at 0.53.
For C18A C23G U32A, the self-cleavage came out at 0.11.
For G19A A25G C31A G33A, the self-cleavage came out at 0.04.
C18G U28A C46G: the self-cleavage is 0.87.
C18A G19A C46A: the self-cleavage was 0.89.
Next, C18U C23U G40U C46U: 0.04.
